The list shows a part of the results.
Experiments:
HSkMC = human skeletal muscle cells; experiment: cytotoxicity call (relative viability < 0.9); settings: 10 µM
HepG2 = experiment: cytotoxicity call (relative viability < 0.9); settings: 10 µM
S. aureus RN4220 = experiment: growth inhibition call (relative growth <= 0.2); settings: 50 µM

| SMILES | cytotoxicity call (HSkMC) | cytotoxicity call (HepG2) | growth inhibition call (S. aureus RN4220) |
| --- | --- | --- | --- |
| C[C@H](CO)N1C[C@H](C)[C@@H](CN(C)S(=O)(=O)c2ccccc2)Oc2ccc(NC(=O)c3ccncc3)cc2CC1=O | inactive | inactive | inactive |
| Cn1c(=O)[nH]c2ccccc21 | inactive | inactive | inactive |
| Cc1noc(C)c1NC(=O)N(C)C[C@H]1Oc2ccc(NC(=O)Nc3ccc(C(F)(F)F)cc3)cc2CC(=O)N([C@H](C)CO)C[C@H]1C | inactive | inactive | inactive |
| CC(C)(C)[C@H]1C=C(C(=O)N2CCN(Cc3ccccc3)CC2)O[C@@H](OCc2ccc(COC(=O)NCCCCCC(=O)NO)cc2)C1 | inactive | inactive | inactive |
| O=C(/C=C/c1ccc(O)c(O)c1)O[C@H]1[C@H](O)C[C@](OC(=O)/C=C/c2ccc(O)c(O)c2)(C(=O)O)C[C@H]1O | inactive | inactive | inactive |
| C[C@@H]1CN([C@@H](C)CO)C(=O)Cc2cc(NC(=O)Cc3cn(C)c4ccccc34)ccc2O[C@H]1CN(C)Cc1ccc(C(F)(F)F)cc1 | inactive | active | inactive |
| CC(C)C#Cc1cnc2c(c1)C(=O)N([C@@H](C)CO)C[C@@H](C)[C@H](CN(C)C(=O)c1ccc3c(c1)OCO3)O2 | inactive | inactive | inactive |
| C[C@H](CO)N1C[C@H](C)[C@@H](CN(C)Cc2ccncc2)Oc2ccc(NS(=O)(=O)c3ccc(F)cc3)cc2CC1=O | inactive | inactive | inactive |
| C[C@@H]1CCCCO[C@@H](CN(C)C(=O)Nc2ccc(C(F)(F)F)cc2)[C@H](C)CN([C@@H](C)CO)C(=O)c2cc(NC(=O)c3ccccc3)ccc2O1 | inactive | inactive | inactive |
| CC(C)NC(=O)Nc1cccc2c1O[C@H](CN(C)S(=O)(=O)c1cccs1)[C@H](C)CN([C@@H](C)CO)C2=O | inactive | inactive | inactive |
| COc1ccc(NC(=O)N(C)C[C@@H]2OCc3ccccc3-c3c(n(C)c4ccccc34)C(=O)N([C@@H](C)CO)C[C@@H]2C)c(OC)c1 | inactive | inactive | inactive |
| O=C(O)CCCN=C1NC(=O)CC(=O)N1 | inactive | inactive | inactive |
| C[C@@H]1CN([C@@H](C)CO)C(=O)c2c(c3ccccc3n2C)-c2ccccc2CO[C@H]1CN(C)Cc1ccc(C(=O)O)cc1 | inactive | inactive | inactive |
| Cc1noc(C)c1S(=O)(=O)Nc1ccc2c(c1)C(=O)N([C@@H](C)CO)C[C@@H](C)[C@H](CN(C)Cc1ccc(C(F)(F)F)cc1)OCCCC[C@H](C)O2 | inactive | inactive | inactive |
| C[C@@H]1CN([C@@H](C)CO)C(=O)c2cc(NC(=O)C3CCCCC3)ccc2O[C@@H](C)CCCCO[C@@H]1CN(C)Cc1ccncc1 | inactive | inactive | inactive |
| O=C(O)CC1(n2cnnn2)CCSCC1 | inactive | inactive | inactive |
| Cc1noc(C)c1S(=O)(=O)Nc1ccc2c(c1)C(=O)N([C@@H](C)CO)C[C@@H](C)[C@@H](CN(C)S(=O)(=O)c1cccs1)O2 | inactive | inactive | inactive |
| C[C@H]1CN([C@@H](C)CO)C(=O)c2cc(NS(=O)(=O)c3ccc(F)cc3)ccc2O[C@H]1CN(C)Cc1ccncc1 | inactive | inactive | inactive |
| CCCCOC(=O)[C@@H](N)CCC(=O)O | inactive | inactive | inactive |

| SMILES | cytotoxicity call (HSkMC) | cytotoxicity call (HepG2) | growth inhibition call (S. aureus RN4220) |
| --- | --- | --- | --- |
| C[C@@H]1CCCCO[C@@H](CN(C)Cc2ccc3c(c2)OCO3)[C@H](C)CN([C@@H](C)CO)C(=O)c2cc(NC(=O)Nc3ccccc3)ccc2O1 | inactive | inactive | inactive |
| C[C@H]1CN([C@@H](C)CO)C(=O)c2cccc(N(C)C)c2O[C@H]1CN(C)S(C)(=O)=O | inactive | inactive | inactive |
| CN1CCc2nc(C(=O)N[C@@H]3C[C@@H](C(=O)N(C)C)CC[C@@H]3NC(=O)C(=O)Nc3ccc(Cl)cn3)sc2C1 | inactive | inactive | inactive |
| C[C@@H]1CN([C@H](C)CO)C(=O)c2cccc(NC(=O)Nc3cccc4ccccc34)c2O[C@H]1CN(C)S(=O)(=O)c1ccc(Cl)cc1 | inactive | inactive | inactive |
| Cc1cc(C(=O)NCc2cc3n(n2)CCN(S(C)(=O)=O)C3)nc(C)n1 | inactive | inactive | inactive |
| CNC[C@H]1Oc2ccc(NC(=O)CCN3CCOCC3)cc2CC(=O)N([C@H](C)CO)C[C@H]1C | inactive | inactive | inactive |
| C[C@H]1CN([C@@H](C)CO)C(=O)CCCn2cc(nn2)CO[C@H]1CN(C)S(=O)(=O)c1ccccc1C#N | inactive | inactive | inactive |
| Cc1ccc(S(=O)(=O)N(C)C[C@H]2Oc3ccc(NC(=O)Nc4ccc(C(F)(F)F)cc4)cc3C(=O)N([C@@H](C)CO)C[C@H]2C)cc1 | inactive | active | inactive |
| CCN(CC)C(=O)c1cccc(C)c1 | inactive | inactive | inactive |
| C[C@H](CO)N1C[C@H](C)[C@@H](CN(C)C(=O)Nc2ccc3c(c2)OCO3)Oc2ncc(-c3cncnc3)cc2C1=O | inactive | active | inactive |
| C[C@@H]1CCCCO[C@@H](CN(C)S(=O)(=O)c2ccccc2)[C@H](C)CN([C@@H](C)CO)C(=O)c2cc(NC(=O)CCC(F)(F)F)ccc2O1 | inactive | inactive | inactive |
| COc1ccc(NC(=O)Nc2ccc3c(c2)C(=O)N([C@@H](C)CO)C[C@H](C)[C@H](CN(C)Cc2ccc(C(=O)O)cc2)OCCCC[C@@H](C)O3)cc1 | inactive | inactive | inactive |
| COc1ccc(CN(C)C[C@H]2OCCCC[C@H](C)Oc3ccc(NC(=O)Nc4ccc(F)cc4)cc3C(=O)N([C@H](C)CO)C[C@H]2C)cc1 | inactive | active | inactive |
| O=C(C[C@H]1CC[C@H](NC(=O)c2ccc(F)cc2)[C@@H](CO)O1)NCc1ccncn1 | inactive | inactive | inactive |
| CC(C)NC(=O)Nc1cccc2c1O[C@@H](CN(C)S(=O)(=O)c1cccs1)[C@@H](C)CN([C@@H](C)CO)C2=O | inactive | inactive | inactive |
| CCS(=O)(=O)N1CC[C@]2(CC1)CN(Cc1ccccc1OC)[C@@H](CO)c1c2c2ccc(cc2n1C)OC | inactive | inactive | inactive |
| CC(C)[C@@H]1COCc2cnnn2CCC[C@H](C)C(=O)N[C@H](C(C)C)COCc2cnnn2CCC[C@H](C)C(=O)N1 | inactive | inactive | inactive |
| Cc1noc(C)c1NC(=O)N(C)C[C@H]1Oc2ccc(NC(=O)CCN3CCOCC3)cc2C(=O)N([C@@H](C)CO)C[C@H]1C | inactive | inactive | inactive |
| C[C@@H]1CN([C@@H](C)CO)C(=O)Cc2cc(NS(=O)(=O)c3cn(C)cn3)ccc2O[C@@H]1CN(C)Cc1ccccc1 | inactive | inactive | inactive |

| SMILES | cytotoxicity call (HSkMC) | cytotoxicity call (HepG2) | growth inhibition call (S. aureus RN4220) |
| --- | --- | --- | --- |
| Nc1ccn2ccnc2c1 | inactive | inactive | inactive |
| O=C(O)[C@@H](O)c1ccccc1 | inactive | inactive | inactive |
| COc1ccc(S(=O)(=O)Nc2ccc3c(c2)C(=O)N([C@@H](C)CO)C[C@H](C)[C@@H](CN(C)CC2CCCCC2)OCCCC[C@H](C)O3)cc1 | inactive | inactive | inactive |
| COCC#Cc1ccc2c(c1)O[C@H](CN(C)C(=O)c1ccccc1F)[C@H](C)CN([C@H](C)CO)S2(=O)=O | inactive | inactive | inactive |
| COc1ccc(S(=O)(=O)Nc2ccc3c(c2)CC(=O)N([C@H](C)CO)C[C@@H](C)[C@@H](CN(C)C)O3)cc1 | inactive | active | inactive |
| CNCCC(Oc1ccc(C(F)(F)F)cc1)c1ccccc1.Cl (stereo unspecified) | inactive | active | inactive |
| COc1ccc(S(=O)(=O)Nc2cccc3c2O[C@@H](CN(C)S(=O)(=O)c2ccc(C)cc2)[C@H](C)CN([C@@H](C)CO)C3=O)cc1 | inactive | inactive | inactive |
| C=c1cc(C)ccc1=C1NN=C(NC(=O)CC)O1 | inactive | inactive | inactive |
| COC(=O)[C@H]1CCNCCC1=O | inactive | inactive | inactive |
| C[C@@H]1CN([C@@H](C)CO)C(=O)c2cccc(NS(C)(=O)=O)c2O[C@@H]1CN(C)S(=O)(=O)c1ccc(F)cc1 | inactive | inactive | inactive |
| C[C@H](CO)N1C[C@H](C)[C@@H](CN(C)Cc2ccc(C(=O)O)cc2)Oc2ccc(NC(=O)Nc3cccc4ccccc34)cc2CC1=O | inactive | inactive | inactive |
| C[C@@H]1CN([C@@H](C)CO)C(=O)c2cc(NS(=O)(=O)c3ccccc3)ccc2O[C@H]1CN(C)C(=O)Nc1cccc2ccccc12 | inactive | inactive | inactive |
| C[C@H]1CN([C@@H](C)CO)C(=O)c2cc(NS(=O)(=O)c3cccs3)ccc2O[C@@H]1CN(C)C(=O)Nc1cccc2ccccc12 | inactive | inactive | inactive |
| C[C@H]1CN([C@@H](C)CO)C(=O)c2c(c3ccccc3n2C)-c2ccccc2CO[C@H]1CN(C)C(=O)Nc1cccc(Cl)c1Cl | inactive | inactive | inactive |
| COc1ccc2c(c1)[C@]1(C[C@H]1c1ccc3c(/C=C/c4ccc(CN5C[C@@H](C)O[C@@H](C)C5)cc4)[nH]nc3c1)C(=O)N2 | inactive | inactive | inactive |
| COC(=O)C1=CO[C@@H](O[C@@H]2O[C@H](CO)[C@@H](O)[C@H](O)[C@H]2O)[C@H]2[C@@H]1[C@H](OC(C)=O)C[C@]2(C)OC(C)=O | inactive | inactive | inactive |
| C[C@@H]1CN([C@H](C)CO)S(=O)(=O)c2ccc(Br)cc2O[C@H]1CN(C)S(=O)(=O)c1ccc(F)cc1 | inactive | inactive | inactive |
| CC(C)(S)C(N)C(=O)O.NCCO (stereo unspecified) | inactive | inactive | inactive |
| C[C@@H]1CCCCO[C@H](CN(C)C(=O)C2CCCCC2)[C@H](C)CN([C@@H](C)CO)C(=O)c2cc(NC(=O)NC3CCCCC3)ccc2O1 | inactive | active | inactive |

Source: the antibiotic and cytotoxicity screens of Wong et al. (2023)
